In PubChem BioAssay AID1508624 (National Center for Advancing Translational Sciences (NCATS), 2021):
Hit rate of the full screen: of about 48,000 compounds, about 120 (0.25%) were called active. About 4% were inconclusive and are not listed. Calls come from the whole dose curve; as a rule, active = well fitted activation curve with a large enough effect; inconclusive = small, poorly fitted or top-dose-only effect, or another doubt; inactive = no such curve, though single readings can be large or run the other way. This is one part of the list.

Test: Primary qHTS for Identification of Small Molecule Activators of Huntingtin-Antisense Promoter Activity; note: nearly all actives have a fitted effect of over 55% in size
Details: HEK293 HTT-AS promoter firefly luciferase reporter, 24 h; series mostly up to 57.5 µM; activity change, positive = activation: at the top concentration
In short: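 HEK293 Fluc reporter, 2,500 cells/well, 24 h pre-culture; cpds up to 57.5 uM final, 24 h 37 degrees C; Dual-Glo, 10 min RT; normalized vehicle = 0%, zero RLU = -100%.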

Activity change, positive = activation, inactive:
NS(=O)(=O)c1cc2c(cc1Cl)NC=NS2(=O)=O
O=c1c2oc3ccccc3c2n(Cc2cccc(C(F)(F)F)c2)c(=O)n1Cc1ccc2c(c1)OCO2 -19.4%
COc1cc(OC)cc(C(=O)Nc2ccc(S(=O)(=O)Nc3onc(C)c3C)cc2)c1 1.48%
CCOC(=O)c1c(C)[nH]c(CCC(=O)Nc2cc(C)cc(C)c2)c1C -22.8%
O=C(Cn1nc(C(F)(F)F)c2c1CCCC2)Nc1ccc(Cl)cc1 -31.4%
Cc1ccc(-n2c3c(cc(-c4nc(-c5ccc(Cl)cc5)cs4)c2=O)C(=O)CC(C)(C)C3)cc1 -3.35%
COc1cccc(CNC(=O)CN2C(=O)CCn3nc(-c4cn(C)c5ccccc45)cc32)c1OC 2.25%
CCc1ccc(N2C(=O)CSC23C(=O)N(Cc2cccc(F)c2)c2ccccc23)cc1 (configuration not stated) -31.8%
CCOC(=O)c1cccc(NC(=O)c2cc(-c3ccc(Cl)s3)nc3ccccc23)c1 -13.6%
O=C(NCCc1ccccc1)c1ccc(CSc2nc3ccncc3n2Cc2ccccc2)cc1 10.4%
Cc1ccc(NC(=O)CSc2nc(C)cc(C)c2C(=O)Nc2cccc(C)c2)cc1 -28.5%
COc1ccc(NC(=O)Cn2ncc3c([nH]c4ccccc43)c2=O)cc1Cl -8.58%
CCN(CC)CCCNC(=O)c1cn(C)c2ccc(S(=O)(=O)N3CCOCC3)cc2c1=O -4.2%
CCCn1cc(S(=O)(=O)c2ccccc2)c(=O)c2cc(F)c(N3CCCC3)cc21 0.309%
CCc1ccccc1NC(=O)c1cc(S(=O)(=O)NC2CCCC2)ccc1F -20.7%
Nc1ccc(S(=O)(=O)Nc2ccccc2)cc1 1.01%
COc1ccc(-n2nc(C(=O)N3CCN(c4cccc(C)c4)C(C)C3)c3c4ccccc4n(C)c3c2=O)cc1 (configuration not stated) 2.3%
CCCn1ccc2c(OCC(=O)Nc3ccc(F)cc3F)cccc2c1=O -21%
Cc1cccc(OCC(=O)Nc2ccc3c(c2)N(C)C(=O)c2ccccc2S3)c1 -31.7%
Cc1cccc(NC(=O)CSc2nc3c([nH]c4ccccc43)c(=O)n2-c2ccc(F)cc2)c1C -22.8%
COc1ccc(NC(=O)c2ccco2)cc1NC(=O)COc1ccccc1Cl -22.6%
Cc1ccc(C(=O)N/C(=C\c2cn(S(=O)(=O)N(C)C)c3ccccc23)C(=O)NCCCn2ccnc2)cc1 -13.9%
CCOc1ccccc1N(C)C(=O)NCc1noc2ccccc12 -8.14%
CCn1cc(C(=O)NC(C)c2ccccc2)c(=O)c2cc(S(=O)(=O)N3CCc4ccccc4C3)ccc21 (configuration not stated) -28.4%
Cc1ccc(-n2nc(C)c3nc(CCC(=O)Nc4ccc(F)cc4)c(=O)n(C)c32)cc1 -1.16%
Cc1ccc(NC(=O)Cn2cc(S(=O)(=O)N3CCCC3)c(S(=O)(=O)N3CCCC3)c2)c(C)c1 8.97% [at 11.5 µM, percent change from vehicle, -100% = no light]
CC(C)Nc1cccnc1N1CCN(C(=O)c2cc3cc(NS(C)(=O)=O)ccc3[nH]2)CC1 -15.1%
O=C(NCCc1ccc(Cl)cc1)c1cccn1-c1nnc(N2CCCC2)s1 -9.11%
COc1ccc(C(=O)c2cn(CC(=O)Nc3ccc4c(c3)OCO4)c3ccc(OC)cc3c2=O)cc1 -23.1%
Cc1nn(S(=O)(=O)c2ccc(C(C)C)cc2)c(C)c1S(=O)(=O)N1CCCCC1 -6.43%
Cc1ccc2c(c1)-c1c(cnn1CC(=O)N1CCN(c3cccc(C(F)(F)F)c3)CC1)CO2 -28.5%
CC(=O)N1CCCc2cc(S(=O)(=O)N3CCCC(C(=O)N4CCN(c5ccccc5F)CC4)C3)ccc21 (configuration not stated) -34.2%
CC(=O)OC[C@@H]1O[C@@H](n2ccc(=O)[nH]c2=O)[C@H](OC(C)=O)[C@H]1OC(C)=O -10.3%
CCc1cccc(C)c1NS(=O)(=O)c1ccc2c(c1)NC(=O)C(C)C(=O)N2 (configuration not stated) -1.45%
CCOc1ccc(-n2c(=O)c3c4c(sc3n(CC(=O)NCCCOC)c2=O)CCCCC4)cc1 -16.6%
COc1ccc(CNC(=O)CN2C(=O)COc3ccc(S(=O)(=O)N4CCCCCC4)cc32)cc1 -15.3%
COc1ccc(-n2c(SCC(=O)NCc3ccccc3)nc3ccsc3c2=O)cc1 -27.9%
COC(=O)c1sccc1S(=O)(=O)N(CC(=O)Nc1cc(C)cc(C)c1)c1ccc(Cl)cc1 -34.8%
COc1ccc(C2(C#N)CCC(C(=O)O)CC2)cc1OC1CCCC1 (configuration not stated) -26.3%
COc1ccc(NC(=O)c2nn(C)c3c2CSc2ccc(C)cc2-3)cc1OC -36%
COc1ccc(CNC(=O)c2ccc(CNS(=O)(=O)c3ccc(OC)cc3)cc2)cc1 -6.05%
Cc1[nH]c(C=C2C(=O)Nc3ccccc32)c(C)c1CCC(=O)O -90.3%
COCCCNC(=O)c1ccc(Cn2c(=O)c3ccccc3n(Cc3ccc(C)cc3)c2=O)cc1 -18.3%
COCCOC(=O)Cn1nnc2sc(-c3ccccc3)cc2c1=O -0.336%
CCOC(=O)c1ccc(NC(=O)CC2Nc3cc(C)c(C)cc3NC2=O)cc1 (configuration not stated) -89.9%
COc1ccc(-c2cn3nc(SCC(=O)Nc4ccccc4F)ccc3n2)cc1 -91.8%
COC(=O)c1scc(-c2ccc(C)cc2)c1S(=O)(=O)Nc1ccc(NC(C)=O)cc1 -27.4%
Cc1cc(C)c(NC(=O)COCc2cc(-c3cccs3)on2)c(C)c1 -3.88%
COc1ccc(S(=O)(=O)N(CC(=O)NCCSc2ccccc2)c2ccc(Cl)cc2)cc1 -4.67%
O=C(CSc1nccn1Cc1ccc(F)cc1)NCc1ccccc1 6.02%
Cc1cccc(OCC(=O)Nc2cccc(C(=O)OCc3cc(=O)n4c(C)csc4n3)c2)c1 -23.4%
CCc1cccc(N2C(=O)CSC23C(=O)N(Cc2ccccc2F)c2ccccc23)c1 (configuration not stated) -40.1%
COc1ccc(-n2ncc(C(=O)NCc3ccc4c(c3)OCO4)c2C2CCN(C(=O)OC(C)(C)C)CC2)cc1 -31.5%
CCN(CC)c1ccc2cc(-c3nc(-c4ccccc4)no3)c(=O)oc2c1 20.9%
Cc1ccc(CNC(=O)c2c(-c3ccc(F)cc3F)noc2C)o1 -13.6%
Cc1cc(C)c(NC(=O)Cn2nnc(C(=O)NCc3cccs3)c2N)c(C)c1 15.3%
COc1ccc(-c2cn3nc(N4CCCC(C(=O)Nc5cc(Cl)ccc5OC)C4)sc3n2)cc1 (configuration not stated) -0.097%
O=C(NCc1cccc(Cl)c1)C1CCN(c2nn3cc(-c4ccc(F)cc4)nc3s2)CC1 0.483%
COc1cc(NC(=O)Cn2c(=O)n(-c3ccccc3)c(=O)c3c4c(sc32)CCCC4)cc(OC)c1 -6.56%
Cc1ccccc1OCc1ccc(-c2nc(C#N)c(N3CCCCC3)o2)o1 -47.8%
CCCCNC(=O)c1cnn2c(C)c(Cc3c(C)cc(C)cc3C)c(C)nc12 -59.1%
COc1ccc(CC(=O)NCC(c2ccc(N(C)C)cc2)N2CCOCC2)cc1OC (configuration not stated) -12.9%
CCOC(=O)c1cc2c(=O)n3ccccc3nc2n(Cc2ccco2)c1=NC(=O)c1ccc(OC)cc1 -17.1%
CSc1ccc(CNC(=O)c2ccc3c(c2)N(C)C(=O)C2CCCCN32)cc1 (configuration not stated) 5.33%
CC(C)COc1ccc(C(=O)Nc2scc(-c3ccc(Br)cc3)c2C(=O)OC(C)C)cc1 -9.6%
Cc1nc2cccnc2n1C1CCN(C(=O)Nc2ccccc2C(F)(F)F)CC1 0.232%
CNS(=O)(=O)c1cn(CC(=O)N2CCN(c3ccc(Cl)cc3)CC2)cc1S(=O)(=O)NC -9.38%
COc1ccc(CCN(C)CCCN2CCc3cc(OC)c(OC)cc3CC2=O)cc1OC -8.98%
CCOc1ccc(-n2nc(CO)c(C(=O)NCC(c3ccccc3)c3ccccc3)n2)cc1 -0.671%
O=C(NCc1ccccc1)c1cccc(N2CCCS2(=O)=O)c1 -7.37%
O=c1ccc2cc(S(=O)(=O)NCc3ccc(Cl)cc3)ccc2[nH]1 -14.1%
c1ccc2[nH]ccc2c1 -5.48%
CCOc1ccccc1NC(=O)Cn1c(=O)n(CCCCC(=O)NCCCOC)c(=O)c2ccccc21 -14.6%
Cc1ccc2[nH]c3c(=O)n(CC(=O)NCCCN4CCN(c5ccc(F)cc5)CC4)ncc3c2c1 0.641%
CCc1ccccc1N(C)C(=O)c1cc2c(Cl)nc3ccc(C)cc3c2s1 -2.19%
CCc1ccc(NC(=O)Cn2nnc(C(=O)NCCc3ccccc3)c2N)cc1 1.52%
O=C(NCc1cccc(F)c1)C1CCN(c2nn3cc(-c4ccc(F)cc4)nc3s2)CC1 31.6%
N#Cc1ccccc1Cn1c(=O)n(-c2ccccc2)c(=O)c2c3c(sc21)CCC3 2.16%
CC1CCN(S(=O)(=O)c2ccc3c(c2)oc(=O)n3CC(=O)N2CCCCC2)CC1 -21%
Cc1ccccc1CNCCSc1nnnn1C -2.8%
Cc1cccc(C)c1NC(=O)c1nc(SC(C)C)ncc1Cl -40%
O=C(Nc1ccc(O)c(-c2nc3ccccc3o2)c1)c1ccc(-c2cccc(Cl)c2)o1 4.67%
COCCCNC(=O)C1CCN(C(=O)c2ccc(-n3ccc4ccccc43)s2)CC1 18%
Cc1cc(C)cc(N(CC(=O)Nc2ccc(C)cc2Cl)S(=O)(=O)c2c(C)[nH]c(=O)[nH]c2=O)c1 4.61% [at 11.5 µM, percent change from vehicle, -100% = no light]
CCCSc1ncc(Cl)c(C(=O)Nc2sc3c(c2C(N)=O)CCCC3)n1 -10.2%
CCN(CC)C(=O)c1sc2c(c1C)c(=O)n(Cc1ccccc1)c(=O)n2CC(=O)Nc1ccc(OC)cc1 -10.5%
O=C(OCC(O)CO)c1ccccc1Nc1ccnc2cc(Cl)ccc12 (configuration not stated) -17.4%
COC(=O)c1ccc(-n2nnc(-c3nsc(NC(=O)c4ccc(Cl)cc4)n3)c2C)cc1 -10.4%
O=c1c(NCCc2ccc(Cl)cc2)nccn1-c1ccccc1 -5.66%
COc1ccccc1NC(=O)CCNS(=O)(=O)c1ccc2c(c1)CCN2C(=O)C1CC1 -15.6%
COc1ccc(OC)c(CCNC(=O)c2cc3cccc4c3n2CCS4)c1 -14%
Cc1cc2n(n1)CCCN2C(=O)Nc1ccc(C)c(Cl)c1 -3.94%
